According to PubChem BioAssay AID2676 (National Center for Advancing Translational Sciences (NCATS), 2010):
Hit rate of the full screen: of about 370,000 compounds, about 1,100 (0.3%) were called active. Inconclusive means that the source gave no clear call. Such entries were picked first, then a sample of the others. The call rests on the fitted dose curve; in most records, active means well fitted activation curve with a large enough effect; inconclusive means small, poorly fitted or top-dose-only effect; inactive means flat fitted curve, though single readings scatter. Where the call is inconclusive, the potency comes from a doubtful curve fit.

The compounds below were run against Relaxin receptor 1 (Homo sapiens) (UniProt Q9HBX9) (assay: qHTS Assay for Agonists of the Relaxin Receptor RXFP1). Details: HEK293T-RXFP1 cAMP TR-FRET, 30 min; series mostly up to 57.5 µM.
UniProt Q9HBX9, sequence (Q9HBX9 whole entry, looked up): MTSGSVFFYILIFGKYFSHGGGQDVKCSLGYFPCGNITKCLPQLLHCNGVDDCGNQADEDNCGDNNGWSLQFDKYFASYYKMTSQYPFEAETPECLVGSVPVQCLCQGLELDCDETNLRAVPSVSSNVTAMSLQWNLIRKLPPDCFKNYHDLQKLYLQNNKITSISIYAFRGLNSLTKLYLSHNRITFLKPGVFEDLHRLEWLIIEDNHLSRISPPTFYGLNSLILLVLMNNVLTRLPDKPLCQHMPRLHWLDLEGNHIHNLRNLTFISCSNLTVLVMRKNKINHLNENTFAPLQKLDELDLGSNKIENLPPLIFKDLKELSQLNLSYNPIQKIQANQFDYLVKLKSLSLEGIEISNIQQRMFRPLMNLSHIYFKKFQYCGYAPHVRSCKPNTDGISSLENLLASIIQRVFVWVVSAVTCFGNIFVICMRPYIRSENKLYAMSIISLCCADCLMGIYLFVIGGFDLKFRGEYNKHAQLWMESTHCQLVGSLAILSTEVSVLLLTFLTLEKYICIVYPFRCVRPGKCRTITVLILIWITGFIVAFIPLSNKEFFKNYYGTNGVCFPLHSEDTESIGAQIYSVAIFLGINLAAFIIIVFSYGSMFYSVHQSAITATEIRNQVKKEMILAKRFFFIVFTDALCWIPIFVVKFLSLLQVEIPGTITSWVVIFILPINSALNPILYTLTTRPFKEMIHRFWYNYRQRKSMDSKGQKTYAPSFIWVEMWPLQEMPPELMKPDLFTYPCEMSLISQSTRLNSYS
In short: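 cAMP rise read by TR-FRET after 30 min, 37C compound exposure (up to 58 uM) in RXFP1-transfected HEK293 cells with Ro 20174 present. EC50 from Hill-equation fits, with 29 nM porcine relaxin as 100% and buffer as basal.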
Further: nearly all actives have a fitted effect of over 60% in size.
Potency means the concentration at half of the fitted maximal effect; tags describe the fitted curve by direction and shape.

| SMILES | Potency |
| --- | --- |
| Cc1nn2c(-c3ccc(S(=O)(=O)N4CCN(CCO)CC4)o3)nnc2c2ccccc12 | inconclusive: 14.1 µM [activator, partial curve] |
| COc1ccccc1CNC(=O)CCC1N=C2c3ccccc3N=C(SCC(=O)Nc3ccc(F)cc3)N2C1=O (configuration not stated) | inactive |
| Cc1cccn2c(=O)c3cc(C(=O)NCCN4CCOCC4)c(=N)n(CCN4CCOCC4)c3nc12 | inconclusive: 20 µM [activator, partial curve] |
| COC(=O)c1c(S(N)(=O)=O)c2ccccc2n1C | inactive |
| COc1ccc(-c2nc(Cn3c(SCc4cccc(F)c4)nc4ccncc43)c(C)o2)cc1OC | inactive |
| CCC1CN(C(=O)N2CCC(C(=O)NCCc3cc(OC)ccc3OC)CC2)c2ccccc2O1 (configuration not stated) | inactive |
| Cc1csc2nc(COC(=O)c3cccc(NC(=O)COc4ccccc4Cl)c3)cc(=O)n12 | inconclusive: 35.5 µM [activator, single point] |
| CCCCOc1cccc(C2/C(=C(/O)c3ccc4c(c3)CC(C)O4)C(=O)C(=O)N2CCN2CCOCC2)c1 (configuration not stated) | active: 28.2 µM |
| COc1ccc(CC(=O)Nc2ccc(-c3nnc(-c4ccccc4)o3)cc2)cc1OC | inconclusive: 39.8 µM [activator, single point] |
| Cc1csc2sc(-c3ccnc(SCC(=O)NCc4ccccc4)n3)c(C)c12 | inconclusive: 39.8 µM [activator, partial curve] |
| Cc1ccc(-n2nc3c(N4CCC(C(=O)NCc5ccccc5C)CC4)nnc(C)c3c2C)cc1 | inconclusive: 22.4 µM [activator, partial curve] |
| CCOC(=O)c1c(NC(=S)Nc2ccc(F)cc2)sc2c1CCC2 | inconclusive: 28.2 µM [activator, single point] |
| CCOC(=O)C1CCN(C(=O)Cn2nc(C)n3cccc3c2=O)CC1 | inconclusive: 25.1 µM [activator, partial curve] |
| CCCn1c(=O)[nH]c(=O)c2c(C(F)(F)F)cc(-c3ccc(C)cc3)nc21 | inconclusive: 39.8 µM [activator, single point] |
| CCN(CC)CC(O)CN(c1ccccc1)S(=O)(=O)c1ccc2ccccc2c1 (configuration not stated) | inactive |
| Cc1cc(SCC(=O)N/N=C/c2ccc(O)c(O)c2)nc2ccccc12 | inactive |
| NC(=S)n1[nH]c(-c2ccc([N+](=O)[O-])cc2)c(N=Nc2ccccc2[N+](=O)[O-])c1=O | inactive |
| CCn1c(SCC(=O)NC2CC2)nnc1-c1cccs1 | inactive |
| COc1ccc(OCc2cccc(C(=O)O)c2)cc1 | inconclusive: 35.5 µM [activator, single point] |
| CCN1CCN(c2nc3c(C)cccn3c(=O)c2C=C(C#N)C#N)CC1 | inconclusive: 25.1 µM [activator, partial curve] |
| CCOc1ccc(C2C(C(=O)Nc3ccccc3)=C(C)Nc3nc(-c4ccccc4)nn32)cc1OC (configuration not stated) | inactive |
| O=C(O)c1cccnc1Nc1ccc(Cl)cc1 | inactive |
| COc1ccc(OC)c(NC(=O)C(C)n2c(=O)cc(C)c3c(C)nn(-c4ccccc4)c32)c1 (configuration not stated) | inconclusive: 39.8 µM [activator, single point] |

| SMILES | Potency |
| --- | --- |
| Cc1ccc(-c2nc(NCc3ccco3)c3ccccc3n2)cc1 | inactive |
| CC(=O)Nc1ccc(-c2cc(-c3ccccc3)nc(-c3ccccc3)n2)cc1 | inconclusive: 35.5 µM [activator, single point] |
| COc1ccc(-n2c(SCC(=O)Nc3cc(C)on3)nc3c([nH]c4ccccc43)c2=O)cc1 | inconclusive: 31.6 µM [activator, single point] |
| O=C(Nc1cccc(C(F)(F)F)c1)c1ccccc1NC(=O)C1CCCCC1 | inconclusive: 17.8 µM [activator, partial curve] |
| Cc1ccc(CN2CCCn3nc(C(=O)NCc4ccc(N(C)C)cc4)cc3C2=O)cc1 | inactive |
| COC(=O)c1ccccc1NC(=O)CCC(=O)N1CCOc2ccccc21 | inconclusive: 39.8 µM [activator, single point] |
| CCCCn1c(NC(=S)Nc2ccccc2)nc2ccccc21 | inconclusive: 39.8 µM [activator, single point] |
| CCCNC(=O)C1CCN(c2ncnc3c2nc2n3CCCCC2)CC1 | inconclusive: 28.2 µM [activator, partial curve] |
| COc1cccc(-c2ccc3c(N)c(C(=O)NCc4ccc(Cl)cc4)sc3n2)c1 | inconclusive: 20 µM [activator, partial curve] |
| CCc1ccc(CNC(=O)c2cc(-c3ccc(Br)s3)nc3ccccc23)cc1 | inconclusive: 2.51 µM [activator, full curve] |
| COc1ccccc1CNC(=O)CSc1ncc2c(n1)-c1ccc(Cl)cc1N(Cc1ccccc1)S2(=O)=O | active: 4.47 µM |
| Cc1ccc(CNC(=O)Nc2ccc(OC(F)(F)F)cc2)n1C | inactive |
| CNS(=O)(=O)c1cccc(C(=O)OCC(=O)Nc2ccc(-c3nc4ccc(C)cc4s3)cc2)c1 | inconclusive: 20 µM [activator, partial curve] |
| CCC(Sc1ccc2nnc(-c3cccnc3)n2n1)C(=O)OC (configuration not stated) | active: 14.1 µM |
| Cc1ccc(C)c(S(=O)(=O)c2nnn3c2nc(N2CCOCC2)c2sccc23)c1 | inconclusive: 15.8 µM [activator, partial curve] |
| CCOC(=O)c1cc(Br)c(=O)n2ccccc12 | inconclusive: 14.1 µM [activator, partial curve] |
| Cc1ccc(NC(=O)CCc2nnc3ccc(N4CCC5(CC4)OCCO5)nn23)cc1F | inconclusive: 20 µM [activator, partial curve] |
| Cc1cc(C)c2c(n1)nn1c(C)c(CCC(=O)NCc3ccccc3Cl)c(C)nc21 | inconclusive: 31.6 µM [activator, single point] |
| Cc1ccc(NC(=O)CSc2nc3ncc(Br)cc3[nH]2)cc1C | inconclusive: 28.2 µM [activator, single point] |
| CCOC(=O)CSc1nc(-c2ccccc2)cc(C(F)(F)F)c1C#N | inconclusive: 10 µM [activator, partial curve] |
| CN(C)CCCn1c(N)c(S(=O)(=O)c2ccccc2)c2nc3ccccc3nc21 | inactive |
| COC(=O)c1ccc(Cl)cc1NC(=O)NCc1c(-n2cccc2)sc2c1CCCC2 | inactive |
| CCN(CC)CCN(C(=O)c1ccc(S(=O)(=O)N2CCCCC2)cc1)c1nc2cc3c(cc2s1)OCO3 | inactive |

| SMILES | Potency |
| --- | --- |
| CC(C)Oc1ccc(CNC(=O)Nc2ccc3c(c2)N(C)C(=O)c2ccccc2S3)cc1 | inconclusive: 39.8 µM [activator, single point] |
| O=C(Nc1ccc2oc(-c3ccncc3)nc2c1)c1ccccc1 | inconclusive: 39.8 µM [activator, single point] |
| Cc1cccc(OCC(=O)OCc2cc(=O)n3nc(-c4cccs4)sc3n2)c1 | inconclusive: 39.8 µM [activator, single point] |
| CCc1ccc(NC(=O)CNC(=O)Cn2ccc3ccccc3c2=O)cc1 | inconclusive: 35.5 µM [activator, partial curve] |
| CCc1nn(Cc2cccc(F)c2)c(=O)c2cc3cc(C)ccc3n12 | inconclusive: 39.8 µM [activator, single point] |
| CC(C)[C@H](NS(=O)(=O)c1ccc(Cl)cc1)C(=O)OCC(=O)c1c(N)n(C)c(=O)n(C)c1=O | inconclusive: 25.1 µM [activator, partial curve] |
| CCOc1ccc2cc(C#N)c(SCC(=O)OC)nc2c1 | inconclusive: 35.5 µM [activator, single point] |
| O=C(Cn1cc(C(=O)C2CC2)c2ccccc21)Nc1ccc(Br)cc1 | active: 20 µM |
| COCCn1c(-c2ccccc2)nc2c(c(=O)c3ccccc3n2C)c1=O | inconclusive: 39.8 µM [activator, single point] |
| CCCCN(C(=O)c1ccc2c(c1)OCCO2)c1c(N)n(CC(C)C)c(=O)[nH]c1=O | inactive |
| COc1cccc(C(=O)Nc2c(C(=O)c3ccc(F)cc3)oc3ccccc23)c1 | inconclusive: 35.5 µM [activator, single point] |
| COC(=O)Cc1c(C)c2ccc3c(c2oc1=O)CN(Cc1ccccc1OC)CO3 | inconclusive: 35.5 µM [activator, partial curve] |
| NNC(=S)Nc1cccc(-c2n[nH]c(=S)o2)c1 | inconclusive: 10 µM [activator, partial curve] |
| CC(=O)c1cc(C#N)c(NCc2cc(-c3ccccc3)no2)nc1C | inconclusive: 39.8 µM [activator, single point] |
| COc1ccc(CNC(=O)c2cc3c(=O)n4cccc(C)c4nc3s2)cc1 | inconclusive: 39.8 µM [activator, single point] |
| COc1ccc(NC(=O)c2oc3c(c2C)-c2nn(Cc4ccccc4Cl)cc2CC3)cc1OC | inconclusive: 35.5 µM [activator, single point] |
| NS(=O)(=O)c1ccc(CCNC(=O)CCCn2c(SCC(=O)N3CCCC3)nc3ccsc3c2=O)cc1 | inconclusive: 31.6 µM [activator, partial curve] |
| CC(C)OCCCn1c(SCC(=O)Nc2ccccc2C(F)(F)F)nc2nccnc2c1=O | inconclusive: 15.8 µM [activator, partial curve] |
| CCOc1ccc2cc(C#N)c(SCC(=O)NC(C)CC)nc2c1 (configuration not stated) | inconclusive: 6.31 µM [activator, single point] |
| CCCc1ccc(-c2cc(NC(=O)CSc3n[nH]c(N)n3)n(-c3ccccc3)n2)cc1 | inactive |
| CN(Cc1ccc(F)cc1)S(=O)(=O)c1nnc(NC(=O)c2ccc(F)cc2)s1 | inconclusive: 28.2 µM [activator, partial curve] |
